Experimental data: article PMC5515408
Some of the results follow. At the low end of the ranking, values are background and their order means little.

Molecular target: MAX:MAX (p21) (UniProt P61244-2)
Assay: protein-binding microarray (anti-MAX antibody)
Conditions: PBM: 15 mM Tris-HCl pH 7.5, 100 mM KCl, 0.075% NP40, 7.5 mM beta-mercaptoethanol, 375 ng/ul BSA, 8 ng/ul poly(dA-dT):(dA-dT), 550 ng complex, 60 min, room …; high values mean tight binding; double strand, one strand shown; sequences stand for … in CCGGC…TTAATAGCTAAGATTACTATATCGACG

Sequence	binding signal (log2 normalized fluorescence)
TGAAGTCATGTA	0.195
TGACACGGGTTT	2.09
TTACAGGTGGTT	2.48
TGGCACCTGGCA	2.17
TGAATGAAGGTA	-0.325
TGAGAAAGAGTA	-1.02
TGAATATCCGTA	-1.01
TGATTTCCAGTA	-1.12
TGAGAGGTTGTA	-0.435
TGAAGGCCTGTA	0.00898
TGACTGAGTGTA	-0.0431
TCTCAGGTGGTA	2.4
TGATGAAGGGTA	-0.578
TGACTCCCAGTA	-0.845
TGAGACAGTGTA	-0.443
TGAGTAAGGGTA	-1.05
TGACTGCTTGTA	-0.193
TGAGAGGCCGTA	-0.846
TGAGAAAACGTA	-0.596
TGAGAAGGGGTA	-0.308
TGAAAATCCGTA	-0.874
TGAAAACCTGTA	-0.14
TGAGTTTGCGTA	-0.942
TGAAGCTACGTA	-0.84
TTACACATGCTA	3.23

Sequence	binding signal (log2 normalized fluorescence)
TGACCGGAAGTA	-0.775
TGAGCATGAGTA	1.93
TGAGTTTGTGTA	-0.951
TGAAAGGCAGTA	-0.493
TGAAATGATGTA	-0.049
TGATCCTTAGTA	-1.1
TGACAATGCGTA	0.927
TGACCCGTCGGA	-0.529
TGAGGCTTCGTA	-0.948
TGACAATTGGTA	-0.507
TGGCAAGTGGTA	0.992
TGAAACATTGTA	0.094
TGACGTCGTGTA	0.752
TGAACTGTTGTA	-0.584
TGACGCGTCGTG	0.94
TGACTCAAGGTA	0.208
TGAAGTTTCGTA	-1.05
TGATGCAGGGTA	-0.0263
TGACACGTAACA	1.37
TGAAATCGTGTA	0.588
TGAATCTTCGTA	-0.77
TGATTCCATGTA	-0.26
TGACTGAACGTA	-0.326
TGACAATCGGTA	-0.724
TGACACGTTTGA	2.82

Sequence	binding signal (log2 normalized fluorescence)
TGAAGATAGGTA	-1.1
TGAGCGTGAGTA	1.56
TGAATTGAGGTA	-0.518
TGAGCCCGGGTA	-1.09
TGATGATACGTA	-0.0182
TGAGGTGCCGTA	-0.395
TGACACCTACTA	-0.0238
TGAGCCAATGTA	-0.709
TGATTAGGGGTA	-0.289
TGATAAATTGTA	-1.25
TGGCACGTGGTT	3.33
TGAGATCGGGTA	-1.15
TGAAGTCGGGTA	-1.26
TGATTTCACGTA	-0.141
TGATTCCCTGTA	-0.643
TGATTGGCAGTA	-0.607
TGAAAAACAGTA	-0.841
TGAGGGAATGTA	-0.0661
TGATCGTTCGTA	-0.331
TGAGTCTAAGTA	-1.08
TGATACGACGTA	-0.643
TGAGGCTGCGTA	-0.197
TGCCTCGTGGTA	3.36
TGAATGTCTGTA	0.29
TGAGGTTCGGTA	-0.923

Sequence	binding signal (log2 normalized fluorescence)
TGATCTTTTGTA	-1.35
TGACAACTGGTA	-0.279
TGAGAGGTCGTA	-0.308
CCACACGTGGTG	3.11
TGACCGGCGGTA	-0.238
TGAGTTTAGGTA	-0.968
TGACAGACGGTA	-0.0666
TAACACCTGGTG	2.98
TGAACAGTGGTA	-0.573
GCTGACGCGGTT	-0.216
TGACACGTAGCT	1.51
TGAGTATGCGTA	0.00997
TGACCACTCGTA	0.109
TGACAAACCGTA	-0.423
TGAGAGGCGGTA	-0.537
TGATCAATAGTA	-1
TGATGTGGGGTA	0.595
TAAGACTTGGTA	-0.976
TGACACGTTGTA	2.96
TGACACGTGGAT	3.24
TGAAACTTTGTA	-1.01
TGACACGAGGTA	3.08
TGACCAATTGTA	-0.72
TCACATGTGTTA	3.25
TGATCAAATGTA	-0.224

Sequence	binding signal (log2 normalized fluorescence)
TGATGTTCCGTA	-0.058
TGAGATACGGTA	-0.729
GTTCACGTGGTA	3.37
TGACCTGTCGTA	-0.255
TCGTACGTGGTA	1.45
TGACGATCCGTA	-0.597
TGACCGGGAGTA	-0.487
TGATCTCACGTA	-0.038
TCAAACATGGTA	1.7
TGACGTTCCGTA	-0.512
TGAGGGCTTGTA	-0.432
TGATTGCCGGTA	-0.626
TGACACGTGCCG	3.41
TGAATGAACGTA	0.00913
CTTCTCTGTCTC	-1.47
TGAGGAGATGTA	-0.451
TGAACTGTAGTA	-0.787
TGAATAGCAGTA	-1.13
TGAGAACGTGTA	2.16
TAACACGTGGTA	3.45
TGAATTCGTGTA	-0.0457
TGATATTGCGTA	-0.611
TGATGTGAAGTA	-0.106
TGAGTGTTGGTA	-0.23
TGATAAGGGGTA	-0.464

Sequence	binding signal (log2 normalized fluorescence)
TGACCCTCTGTA	-0.425
TTACACGTGGCG	3.07
TGAAGGCGAGTA	-0.233
TGAGACCATGTA	0.385
TGATTCGTTGTA	-0.814
TGATGCAATGTA	-0.107
TGAAACAGGGTA	-0.283
TGATACGGCGTA	-0.891
TGACGCCGTGTA	0.693
TGAGCTATGGTA	-0.544
TCAAAAGTGGTA	-0.449
TGAGCGGCAGTA	-0.716
TTATACGTGATA	0.467
TGATCTTAAGTA	-0.996
TGACGAAGTGTA	-0.547
TGACAAGCCGTA	-0.454
TGAGCGGCCGTA	-1.04
TGACATCGGGTA	0.225
TGAGAGTCGGTA	-1.2
TGAGGTGCGGTA	0.226
TGATTGTAAGTA	-0.594
TGAAACGTGTTA	3.05
TGACTGTAAGTA	-0.4
TGAAATGGGTTT	-0.419
TGAAGTGCGGTA	0.541

Sequence	binding signal (log2 normalized fluorescence)
TGATGTAGTGTA	-0.162
TGATTGCACGTA	0.423
TGACCCGGAGTA	-0.596
TGACACATGCAA	3.17
TGACTCGTGGTA	2.95
TGAGGCTGAGTA	-0.711
TGATCCAGCGTA	-1.01
TGAGTATTTGTA	-1.13
TGAACACACGTA	1.45
TGAGGCCCAGTA	-0.652
TGAGCTCCCGTA	-1.07
TAACACGTTGTA	3.12
TGATGGACTGTA	0.00745
TGACGAACTGTA	-0.551
TGAAGTTTGGTA	-1.06
TGAATTAGGGTA	-1.09
TGATTACACGTA	0.436
TGAGATAGCGTA	-1.04
TGAGCTATTGTA	-1.4
TGAATGTTGGTA	0.124
TGACGGGAAGTA	-0.802
TGACACGTGTTA	3.29
TGAGCTCAGGTA	-0.146
TGACCCTATGTA	0.382
TGGAACGTCGTA	-0.338
